Data taken from paper PMC3682574.
No constants are given. Whether binding was seen depends on the method and setting. Binding seen in cells or lysates may run through a third protein. Some entries that bind do so weakly or less than the wild type. For part of these data: Sequences can lack the tags named with a protein. Values belong to the substance of their own block, whether it stands above or below them.

By UniProt entry, the sequences of proteins in these tests, tags left out. Where a name states a change or a piece, a line headed by the entry shows the natural chain unless it says otherwise.
UniProt P62873: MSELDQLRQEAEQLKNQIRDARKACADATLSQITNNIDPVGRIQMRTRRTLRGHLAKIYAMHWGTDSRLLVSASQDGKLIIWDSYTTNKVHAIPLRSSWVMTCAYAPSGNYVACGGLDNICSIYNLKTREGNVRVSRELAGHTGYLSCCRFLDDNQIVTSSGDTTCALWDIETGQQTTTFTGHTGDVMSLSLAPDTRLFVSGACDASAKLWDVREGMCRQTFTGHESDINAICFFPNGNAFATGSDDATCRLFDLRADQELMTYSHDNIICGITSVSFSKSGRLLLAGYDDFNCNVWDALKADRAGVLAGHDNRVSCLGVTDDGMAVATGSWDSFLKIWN
UniProt P62879: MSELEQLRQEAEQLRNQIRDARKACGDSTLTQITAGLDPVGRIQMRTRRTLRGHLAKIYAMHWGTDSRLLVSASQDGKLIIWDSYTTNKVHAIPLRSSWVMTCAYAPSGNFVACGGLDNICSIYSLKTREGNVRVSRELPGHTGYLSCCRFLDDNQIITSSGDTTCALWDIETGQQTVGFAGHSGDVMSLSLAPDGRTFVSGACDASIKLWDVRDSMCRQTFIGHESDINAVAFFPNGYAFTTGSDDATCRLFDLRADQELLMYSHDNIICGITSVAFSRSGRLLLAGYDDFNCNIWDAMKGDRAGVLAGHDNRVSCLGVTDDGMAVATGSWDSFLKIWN
UniProt P45973: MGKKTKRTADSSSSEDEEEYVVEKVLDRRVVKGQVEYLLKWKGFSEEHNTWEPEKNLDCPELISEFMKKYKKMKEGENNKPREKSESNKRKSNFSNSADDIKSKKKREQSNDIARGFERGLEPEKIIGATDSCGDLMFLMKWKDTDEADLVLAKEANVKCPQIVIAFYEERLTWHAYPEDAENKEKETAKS

Legend:
[1] = molecular target: GST-KLF11 full length (human) (UniProt O14901); assay: pull-down; GST pulldown: GST-KLF11 TRD3 or GST-KLF11 full length with 35S-labeled in vitro translated Gβ2 or its deletions; phosphorimaging; only the target purified
[2] = molecular target: FLAG-tagged Gβ1 (HeLa) (UniProt P62873); assay: co-IP; HeLa cells co-transfected with His-KLF11 and FLAG-Gβ2 or FLAG-Gβ1; immunoprecipitation of FLAG, KLF11 detected; basal conditions and with isoproterenol (more robust)
[3] = molecular target: FLAG-tagged Gβ2 (HeLa) (UniProt P62879); assay: as above
[4] = molecular target: His-tagged KLF11 A347S (Panc1) (human) (UniProt O14901); assay: co-IP; immunoprecipitation of His-tagged KLF11 WT or A347S (Panc1 cells named for Fig. 4A); Western blot for endogenous Gβ2, Sin3a, HP1α and CBP/p300
[5] = molecular target: His-tagged KLF11 WT (Panc1) (human) (UniProt O14901); assay: as above
[6] = molecular target: KLF11-EYFP1 (human) (UniProt O14901); assay: split reporter; BiFC: KLF11-EYFP(1) and Gβ2-EYFP(2) co-transfected in HeLa (isoproterenol) and Capan2 (secretin) cells, stimulated for 30 min before fixation; confocal microscopy
[7] = molecular target: KLF11-EYFP1 (human) (UniProt O14901); assay: condition: only vehicle, without the GPCR agonist (isoproterenol or secretin); split reporter; BiFC as above, HeLa and Capan2 cells with control treatment (vehicle), no GPCR agonist
[8] = molecular target: T1, GST-KLF11 TRD3 (amino acids 273–351) (human) (UniProt O14901); assay: pull-down; GST pulldown: GST-KLF11 TRD3 or GST-KLF11 full length with 35S-labeled in vitro translated Gβ2 or its deletions; phosphorimaging; only the target purified
T1 sequence: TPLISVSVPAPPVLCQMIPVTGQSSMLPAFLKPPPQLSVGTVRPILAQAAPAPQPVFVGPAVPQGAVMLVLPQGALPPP

binding [1]: binds
Substance: Gβ2Δ1–208 (from UniProt P62879 209-340) (domain or fragment)

binding [2]: binds
binding [3]: binds
Substance: His-tagged full-length KLF11 (HeLa) (from UniProt O14901 1-512)

binding [4]: binds
binding [5]: binds
Substance: HP1α (from UniProt P45973 1-191)

binding [6]: binds
binding [7]: no binding
Substance: Gβ2-EYP2 (from UniProt P62879 1-340)

binding [1]: binds
Substance: Gβ2Δ1–105 (from UniProt P62879 106-340) (domain or fragment)

binding [1]: no binding
Substance: Gβ2Δ1–221 (from UniProt P62879 222-340) (domain or fragment)

binding [1]: no binding
Substance: Gβ2(1–214) (from UniProt P62879 1-214) (domain or fragment)

binding [4]: no binding
binding [5]: binds
Substance: endogenous Gβ2 (Panc1) (from UniProt P62879 1-340)

binding [1]: binds
Substance: Gβ2Δ1–120 (from UniProt P62879 121-340) (domain or fragment)

binding [8]: binds
Substance: 35S-labeled in vitro translated Gβ2 (from UniProt P62879 1-340)

binding [1]: no binding
Substance: Gβ2(106–214) (from UniProt P62879 106-214) (domain or fragment)
